In PMC10668032:
Some of the results follow. At the low end of the ranking, values are background and their order means little.

These sequences were tested against SIX1-Q177R homeodomain (UniProt Q15475) (assay: universal protein binding microarray). Conditions: Universal all-10-mer PBM (8x60K, AMADID 030236), 300 nM GST-tagged protein, Alexa Fluor 488 anti-GST; buffer, salt, pH and temperature not stated; high values mean tight binding; most listed sequences are background and not binding sites; double strand, one strand shown.
With GGTCTCCA the binding signal was -0.135 E-score. Sequence CTACCAGC has a binding signal of -0.0932 E-score. In the case of GCATTTCC, the binding signal is reported as -0.141 E-score. For AGGCGTAT, the binding signal was -0.0158 E-score. With GGAGGATA the binding signal was 0.0528 E-score. For CGGTATCC, the binding signal was 0.325 E-score. In the case of AGTGTCTA, the binding signal is reported as 0.372 E-score. CCATTATA showed a binding signal of -0.0138 E-score. CTGGTAAC gave a binding signal of 0.0552 E-score. With GGTCGACC the binding signal was 0.136 E-score. In the case of CCACTTAG, the binding signal is reported as -0.0567 E-score. Work on ACGCATTA yielded a binding signal of -0.056 E-score. For GAGCGCGC, the binding signal was -0.233 E-score. With AATAGCGA the binding signal was 0.12 E-score. Work on CCTCGATC yielded a binding signal of 0.0664 E-score. For GCAGAGAC, the binding signal was -0.201 E-score. Sequence GAGTGCCA has a binding signal of -0.0848 E-score. In the case of CAAAGGGC, the binding signal is reported as -0.129 E-score. AGGAAAGC gave a binding signal of -0.19 E-score. ACTTGGAT showed a binding signal of 0.116 E-score. CAACCATG was tested, and the binding signal was -0.015 E-score. In the case of AATTTAAT, the binding signal is reported as -0.127 E-score. AAGGTAAA showed a binding signal of -0.0807 E-score. With GCAAAAAC the binding signal was -0.0384 E-score. AGGGAAGC showed a binding signal of -0.276 E-score. For CCCGGCGG, the binding signal was 0.127 E-score. With CTTCTGGA the binding signal was -0.103 E-score. With CGGAGCAG the binding signal was 0.0446 E-score. Work on CTAAACAG yielded a binding signal of -0.251 E-score. GAGTCGCA showed a binding signal of 0.0152 E-score. Sequence CCGAACCG has a binding signal of 0.175 E-score. CTGTAGGA was tested, and the binding signal was 0.081 E-score. Sequence CGAGTGCG has a binding signal of 0.00816 E-score. ATTACTAA showed a binding signal of -0.145 E-score. With AAAGAAAT the binding signal was -0.215 E-score. CTTCCAGC was tested, and the binding signal was -0.262 E-score. Work on GAAATGAA yielded a binding signal of -0.219 E-score. In the case of CATAGACA, the binding signal is reported as 0.0872 E-score. Work on CTGAGCGA yielded a binding signal of -0.0334 E-score. GAAGATGC gave a binding signal of -0.159 E-score. Work on TACAGCAA yielded a binding signal of -0.0509 E-score. Sequence CCTGCCGC has a binding signal of -0.152 E-score. Sequence ATAGGCGA has a binding signal of -0.201 E-score. With ACCAAGAG the binding signal was 0.213 E-score. Sequence ATCCAGTC has a binding signal of 0.118 E-score. For GGGAGGAA, the binding signal was -0.139 E-score. Sequence CCACTGAG has a binding signal of 0.131 E-score. Work on GAGTCGAA yielded a binding signal of 0.0854 E-score. In the case of CGGTCCAC, the binding signal is reported as -0.218 E-score. With ACGCCTCA the binding signal was 0.165 E-score. CAACTGTG gave a binding signal of -0.0257 E-score. With GCACCTCC the binding signal was 0.102 E-score. In the case of CTCCGCCA, the binding signal is reported as -0.146 E-score. With CATAAGCG the binding signal was -0.0888 E-score. CTCTCGGA gave a binding signal of -0.114 E-score. CTTGTATA showed a binding signal of -0.0877 E-score. With CTCAACAA the binding signal was 0.09 E-score. AGGCTTAG was tested, and the binding signal was -0.151 E-score. Work on ATTCATGA yielded a binding signal of -0.0959 E-score. Sequence ATCAGCCC has a binding signal of 0.0123 E-score. For CTGTCACA, the binding signal was 0.0927 E-score. In the case of GAGTTCGA, the binding signal is reported as 0.0107 E-score. With ATACTCTA the binding signal was 0.00234 E-score. With ATTTGAGC the binding signal was -0.0724 E-score. Work on CTAACCGA yielded a binding signal of -0.0115 E-score. For AGCCCCGG, the binding signal was 0.0308 E-score. For ACAGCTCC, the binding signal was -0.122 E-score. CGCAATAA was tested, and the binding signal was -0.00154 E-score. In the case of ATATCACG, the binding signal is reported as -0.0469 E-score. ACTGTTCT showed a binding signal of -0.0181 E-score. For AGGAGAGA, the binding signal was -0.0347 E-score. Sequence GTTGTTCA has a binding signal of -0.0874 E-score. For CTGTCGAA, the binding signal was -0.107 E-score. Sequence TACGTTCA has a binding signal of -0.117 E-score. With ACCCCACT the binding signal was 0.207 E-score. In the case of CTACCGAG, the binding signal is reported as -0.00206 E-score. GTTGGGGA was tested, and the binding signal was 0.218 E-score. Sequence CCCGGTAC has a binding signal of 0.22 E-score. ATAGCCGG was tested, and the binding signal was -0.0319 E-score. With GGTCGGGA the binding signal was 0.159 E-score. GCATCCCC showed a binding signal of -0.178 E-score. CAACCTAA gave a binding signal of -0.147 E-score. AGTCACAA showed a binding signal of 0.0766 E-score. For CTAAAACC, the binding signal was 0.0354 E-score. In the case of AGAACACC, the binding signal is reported as 0.459 E-score. Sequence CCATAGCC has a binding signal of 0.0381 E-score. Work on ACACCGGT yielded a binding signal of 0.481 E-score. For CCATGCTC, the binding signal was -0.0521 E-score. For ACGGATTC, the binding signal was -0.00227 E-score. For GAATTGCA, the binding signal was -0.214 E-score. For CCATCATC, the binding signal was -0.114 E-score. In the case of ACCAACTA, the binding signal is reported as 0.115 E-score. Sequence ATCTGTTC has a binding signal of -0.248 E-score. CAATTCGC gave a binding signal of -0.00761 E-score. AGCTCTAA gave a binding signal of -0.0461 E-score. Work on ATAGCTCC yielded a binding signal of -0.232 E-score. CCCGTAAA gave a binding signal of -0.0585 E-score. With CGAGTCGA the binding signal was 0.151 E-score. GCATCAAC gave a binding signal of -0.14 E-score. CTATGCTC was tested, and the binding signal was 0.0665 E-score. In the case of ACGATGGG, the binding signal is reported as 0.151 E-score. Sequence TATCACGA has a binding signal of 0.0808 E-score. ATCGCAAA gave a binding signal of -0.149 E-score. With GCAGACGC the binding signal was -0.0935 E-score. With AGCAATTC the binding signal was -0.202 E-score. GGTAATAC was tested, and the binding signal was 0.108 E-score. AGCCGAAC was tested, and the binding signal was -0.136 E-score. Sequence AGCTATTG has a binding signal of -0.11 E-score. In the case of ACGGTTGC, the binding signal is reported as -0.134 E-score. For ACGTCGAG, the binding signal was 0.0549 E-score. For AACATTGC, the binding signal was -0.25 E-score. For AGATGATA, the binding signal was -0.0114 E-score. CATGCCAG was tested, and the binding signal was -0.19 E-score. With CTTATTGC the binding signal was -0.216 E-score. Sequence CACAAAAC has a binding signal of 0.0539 E-score. ATGAGGAA showed a binding signal of -0.143 E-score. In the case of CAATCGGG, the binding signal is reported as -0.0102 E-score. Work on ACATTGCG yielded a binding signal of -0.121 E-score. Work on AGTCCGAT yielded a binding signal of -0.109 E-score. For CTAACCAA, the binding signal was 0.0416 E-score. Sequence AGAAAGCC has a binding signal of -0.304 E-score. ACTAGACG was tested, and the binding signal was 0.0673 E-score. In the case of AGTTCGGG, the binding signal is reported as -0.179 E-score. AGAGCTCT was tested, and the binding signal was -0.16 E-score. ATATCAAC gave a binding signal of -0.0233 E-score. With CGTGGCGC the binding signal was -0.273 E-score. GCGAATCC gave a binding signal of 0.0153 E-score. Work on CCGTCAGC yielded a binding signal of -0.173 E-score. For AATAGCCC, the binding signal was -0.0756 E-score. Work on GGAAGACA yielded a binding signal of 0.155 E-score. In the case of AAGATACT, the binding signal is reported as -0.0816 E-score. Sequence TATGCATA has a binding signal of 0.0285 E-score. AGGGTCCC was tested, and the binding signal was -0.149 E-score. CCGCTAGA gave a binding signal of -0.0311 E-score. AGTCGTGA showed a binding signal of 0.00548 E-score. In the case of GGCCCTGA, the binding signal is reported as -0.141 E-score. ATGCTGGG showed a binding signal of 0.0701 E-score. CGGATTGA showed a binding signal of 0.0653 E-score. AGTATCCC showed a binding signal of 0.139 E-score. With CGTGTTTC the binding signal was 0.339 E-score. CCGCTCTC gave a binding signal of -0.251 E-score. With GAGCCAAA the binding signal was -0.233 E-score. CCTCCAAC was tested, and the binding signal was 0.0637 E-score. For AATCCAGG, the binding signal was -0.0225 E-score. CTCCTCTA was tested, and the binding signal was 0.0908 E-score. With CGGCTTCC the binding signal was 0.144 E-score. With AAAGGCCG the binding signal was -0.12 E-score. ATACACAC showed a binding signal of 0.315 E-score. For ATGTTATC, the binding signal was -0.0443 E-score. Sequence AGGTCGGG has a binding signal of -0.000815 E-score. CGAGTCAG gave a binding signal of -0.0723 E-score. For ATGGTTCC, the binding signal was -0.0242 E-score. In the case of AGCCTTAT, the binding signal is reported as -0.134 E-score. AACTGAAC showed a binding signal of -0.174 E-score. In the case of TGATCAAA, the binding signal is reported as -0.00451 E-score. AGAGCCGA was tested, and the binding signal was -0.268 E-score. In the case of GCATATTA, the binding signal is reported as -0.0109 E-score. With CCTCCACA the binding signal was -0.0147 E-score. Work on ACCCCGGC yielded a binding signal of 0.262 E-score. GATTAAGC gave a binding signal of -0.21 E-score. For ACATCCGG, the binding signal was -0.00423 E-score. In the case of CTCATAAC, the binding signal is reported as 0.0542 E-score. AGGGTAGG gave a binding signal of 0.176 E-score. AGCATCTA gave a binding signal of -0.176 E-score. CGGAGTCA gave a binding signal of 0.356 E-score. In the case of GCAACTCC, the binding signal is reported as 0.0875 E-score. AACACTAG showed a binding signal of 0.357 E-score. For ACCGTACG, the binding signal was -0.0127 E-score. CGCCAGAC gave a binding signal of -0.227 E-score. ACGGTTTG was tested, and the binding signal was 0.118 E-score. In the case of ATGCCGAG, the binding signal is reported as -0.126 E-score. ATTTACCG showed a binding signal of -0.0397 E-score.
